Measurements as given in the supplement of paper PMC3334620.
Whole data set: some 33,000 sequences, median “E-score (-0.5 to 0.5)” near -0.017, cut for the highest 2% near 0.3. Some of the results follow.

Molecular target: T1, Sut1 (UniProt P53032)
T1 sequence: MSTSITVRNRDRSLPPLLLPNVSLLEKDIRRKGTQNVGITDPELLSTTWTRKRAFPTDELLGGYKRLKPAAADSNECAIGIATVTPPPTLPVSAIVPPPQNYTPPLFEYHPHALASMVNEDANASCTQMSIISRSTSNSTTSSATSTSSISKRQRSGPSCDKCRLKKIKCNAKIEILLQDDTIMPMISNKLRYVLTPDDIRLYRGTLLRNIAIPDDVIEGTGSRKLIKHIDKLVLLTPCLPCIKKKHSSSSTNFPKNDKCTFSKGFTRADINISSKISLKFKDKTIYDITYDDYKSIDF
Assay: PBM E-score (8-mer binding enrichment) (E-score (-0.5 to 0.5)); higher = stronger / more preferred TF binding; most listed sequences are background and not binding sites
Conditions: protein concentration: 200 nM; construct: GST-full length
Procedure, shortened: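 Universal all-10-mer Agilent arrays, double-stranded by primer extension on fresh or once-stripped slides, were probed with about 100-200 nM GST-tagged yeast transcription factors made by PURExpress. Fluorescent anti-GST detected bound protein, and masliner normalised the scans. E-scores from the Universal PBM Analysis Suite were given to each ungapped eight-base word pooled with its reverse complement.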

| Sequence | PBM E-score |
| --- | --- |
| AGCCCTTA | -0.116 |
| GAAGCGCA | 0.00885 |
| GCCTCTAC | -0.256 |
| ATAAAAGC | 0.139 |
| GATGAGGC | -0.237 |
| TTACCAAA | 0.0865 |
| AGTGGTTC | -0.0574 |
| GACGTATA | 0.0204 |
| ACGTCAGT | -0.0652 |
| CACGCCAA | -0.0569 |
| CACGTCGG | -0.127 |
| CAATCGGA | 0.286 |
| CCTGTACG | -0.0826 |
| AGTGTCGG | 0.139 |
| CACCCCTG | -0.24 |
| ACCGTAGG | -0.334 |
| CAGGCAGG | -0.197 |
| AATCGTCA | 0.0105 |
| GCCCGCGC | -0.106 |
| CGCGTTAA | -0.00965 |
| CGGCGACG | 0.0219 |
| CCTATCCG | -0.0504 |
| AATCGTGA | -0.0296 |
| ATAAACGG | 0.247 |
| TACATACA | 0.249 |

| Sequence | PBM E-score |
| --- | --- |
| GATGATAC | 0.148 |
| AGAAAAGG | 0.118 |
| GCTAATAA | 0.0879 |
| GTCTAAAA | -0.00696 |
| CCGGTGAG | -0.0789 |
| GGCGAGCA | -0.21 |
| CGCGGTTA | 0.00192 |
| ACGTTTTG | -0.0348 |
| AAAGGTGA | -0.124 |
| GGATTGCA | 0.0644 |
| GGGAGATA | -0.144 |
| AGTATGAT | 0.168 |
| TCATCGAA | 0.0449 |
| CGAACACA | 0.0704 |
| AGAGAATC | -0.0404 |
| CCGATCGC | -0.12 |
| TACCGTGA | -0.0661 |
| GAGACGGA | 0.142 |
| CTTACATC | 0.003 |
| ATGGTGCA | -0.0833 |
| CTTGAGTC | -0.137 |
| ATAGAGCG | 0.0262 |
| ACTGTCAA | -0.099 |
| ACTTCTCT | -0.0607 |
| CTGACTTA | 0.186 |

| Sequence | PBM E-score |
| --- | --- |
| AATTGCCC | -0.0207 |
| AGCAGGCT | -0.209 |
| ATCGCCCG | -0.0476 |
| ACCGGTCA | -0.08 |
| CCAGAACG | -0.104 |
| GAGTCCAA | -0.00222 |
| GTACGCAC | -0.193 |
| CCATCGTC | -0.0517 |
| CACTGGTA | -0.13 |
| ATCACTAG | -0.0162 |
| AATAGAAT | 0.217 |
| GGTACACC | -0.299 |
| CAGAAAAC | 0.00262 |
| ACGGCTCG | 0.128 |
| GTCAACAC | 0.0603 |
| CAACAGAC | -0.0762 |
| TGACGGCA | -0.281 |
| AATGTACT | 0.149 |
| CTAGTCCC | -0.239 |
| TATTCGAA | 0.0804 |
| CACCGGTA | -0.12 |
| CAGCTGTA | -0.0988 |
| AGATTATC | 0.156 |
| ATCGGTGA | 0.0337 |
| AGTCCACG | -0.171 |

| Sequence | PBM E-score |
| --- | --- |
| ATTACCGA | 0.224 |
| CACATTCG | 0.0133 |
| CTCCCTAA | -0.142 |
| AGCGAAGG | -0.186 |
| CCGTTATC | 0.112 |
| AATGCTCA | -0.0771 |
| CCCTAGCG | -0.237 |
| ACAATCAA | 0.125 |
| GACGGAGC | 0.231 |
| AAATGATG | 0.16 |
| AACGACAA | 0.192 |
| ATAGATTA | 0.242 |
| GCCCGAAA | 0.111 |
| CCGCTTTA | -0.0207 |
| GGGTGTTA | -0.0598 |
| AGACGCTG | -0.192 |
| GCCGTCCA | 0.00979 |
| CATCGCAG | -0.258 |
| CGCGAACA | -0.0835 |
| CTTTCCGA | 0.226 |
| ATGACCGC | -0.139 |
| ACTGATCA | 0.136 |
| AATTGCTC | 0.104 |
| AGGTATGA | 0.0346 |
| ATGCAACG | 0.0331 |

| Sequence | PBM E-score |
| --- | --- |
| ACAACGTC | -0.0808 |
| GGCTTCCA | -0.0931 |
| ATGATAAC | 0.168 |
| GATGAGCC | -0.0961 |
| CAGATCTA | -0.205 |
| CACCATGA | -0.141 |
| ATCACATA | 0.218 |
| GACGGTAC | 0.00029 |
| GGATTCCA | 0.061 |
| CACGGGTC | -0.154 |
| CGCCCCTC | -0.317 |
| CGCAACCA | -0.101 |
| CTTTGGGC | 0.00284 |
| CAACGCTA | -0.0788 |
| ACGAATGG | 0.0891 |
| AATGCGCT | -0.0347 |
| CGACGGTA | -0.0354 |
| CATTGCAG | -0.209 |
| GATTTCTA | 0.245 |
| CCAGAGAC | -0.13 |
| AGTTGACC | 0.0376 |
| CCCAGCAA | -0.0792 |
| GCTAACCC | -0.142 |
| GTCAAGGA | -0.168 |
| CGAGAGGA | -0.043 |

| Sequence | PBM E-score |
| --- | --- |
| ATAGCTAG | -0.276 |
| ACAGGAAG | -0.0109 |
| GAAGAACA | 0.207 |
| AAACCTAA | 0.051 |
| GAAGATTA | 0.109 |
| AACGAATT | 0.0668 |
| TCATCACA | -0.0829 |
| CCAACAAA | 0.131 |
| ACACAGCT | -0.136 |
| TAGGTGCA | -0.19 |
| AGATGGAC | 0.0207 |
| GTCGATAA | -0.0703 |
| ATGGGGGA | -0.282 |
| CAACTTGA | 0.186 |
| AAAGAAGT | 0.0914 |
| ACTGAGCA | -0.243 |
| ACGCACGG | -0.128 |
| CAGGTGCC | -0.165 |
| GACTCATC | -0.206 |
| ATTCGGTA | 0.16 |
| AGCCAAAG | -0.122 |
| CCGTGTGA | 0.00325 |
| CGTGCAGA | -0.148 |
| CATTCGAG | 0.0226 |
| AATTAAGG | 0.0513 |

| Sequence | PBM E-score |
| --- | --- |
| TCTCGGAA | 0.215 |
| AAATGTGC | 0.155 |
| GGCTCCGA | 0.338 |
| TGCGACCA | 0.0542 |
| CAGGGAAC | -0.163 |
| AATTCAGT | -0.0626 |
| AATACGCT | 0.0763 |
| AAGAACCA | 0.0523 |
| CAGATGGC | -0.0583 |
| CATATGGC | -0.0639 |
| ACATGAAA | 0.00044 |
| GTTGGTGA | -0.0399 |
| ATTTGAGG | -0.161 |
| GGTCACTA | -0.0511 |
| AATTACAT | 0.193 |
| CGGGACAA | -0.15 |
| ATCGGTCG | -0.0794 |
| ACTAATAT | 0.211 |
| AACGCAAC | 0.126 |
| GTAAATGA | 0.153 |
| AAAGCTCG | 0.169 |
| GGTCTACA | 0.0554 |
